From PubChem BioAssay AID686979 (National Center for Advancing Translational Sciences (NCATS), 2013)
Values joined by “and” are separate entries in the source; they are usually repeats but may differ in a detail not shown here. Equal entries are not always repeated. The campaign covered roughly 420,000 compounds. About 50,000 (12%) were called active. This list was built around the results that the source calls inconclusive (neither active nor inactive); the mix of calls is not that of the screen. Calls follow the shape of the dose curve; as a rule, active = well fitted inhibition curve with a large enough effect; inconclusive = small, poorly fitted or top-dose-only effect; inactive = flat fitted curve, though single readings scatter. Potencies of inconclusive entries are doubtful fits and often do not repeat.

Assay: qHTS for Inhibitors of human tyrosyl-DNA phosphodiesterase 1 (TDP1): qHTS in cells in presence of CPT; also: nearly all actives have a fitted effect of over 55% in size
Conditions: chicken DT40 Tdp1-/-;hTDP1 cells + 20 nM CPT, ATP luminescence, 48 h; activity change, negative = growth inhibition: at 46.2 µM (top of the series) unless noted
How it was run: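 Chicken DT40 Tdp1-/- cells complemented with human TDP1, 400 cells/well, exposed to compounds plus 20 nM camptothecin for at least 48 h at 37 C; viability read as ATP content by CellTiter-Glo luminescence.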
% is scaled to controls: 0 for no effect and ±100 for the full control effect; potency is read from the fitted curve at half-maximal effect; tags tell the direction and shape of the fitted curve.

SMILES	Potency	activity change, negative = growth inhibition
COc1ccc(S(=O)(=O)N2CCN(C(=O)c3ccc(COc4ccccc4)o3)CC2)cc1	inconclusive: 20.6 µM [inhibitor, single point]	–
Cc1cccc(N2CCN(C(=O)CCCCn3c(=O)[nH]c4ccsc4c3=O)CC2)c1C	inconclusive: 18.4 µM [inhibitor, single point]	–
COc1cc(OC)c(/C=C2\C(=O)Nc3ccccc32)c(OC)c1	active: 2.59 µM	–
COC(=O)C1=C(c2ccc3ccccc3c2)C[C@@H]2CC[C@H]1N2C(=O)NCCO	inconclusive: 16.4 µM [inhibitor, partial curve]	–
O=C(Cn1c(=O)n(CC2CCC(C(=O)NCCc3ccccc3)CC2)c(=O)c2ccccc21)Nc1cccc(F)c1 (stereo unspecified)	inconclusive: 7.31 µM [inhibitor, partial curve]	–
C=CCn1c(O)c(C(CC)=NCCc2ccccc2)c(=O)[nH]c1=O	inconclusive: 20.6 µM [inhibitor, partial curve]	–
CCOc1ccc(CCNC(=O)c2cc3c(-c4ccc(OC)c(OC)c4)nn(C)c3s2)cc1OCC	active: 4.11 µM	–
Cc1cc(C)c(C2=NOC(O)(C(F)(F)F)C2)c(=O)[nH]1 (stereo unspecified)	–	inactive: -2.85%
Cc1cc(C)cc(N2C(=O)NC(=O)/C(=C\c3cccn3-c3ccccc3)C2=O)c1	inconclusive: 25.9 µM [inhibitor, single point]	–
COc1cc(C2c3cc4c(cc3C(O)[C@H]3COC(=O)C23)OCO4)cc(OC)c1OC (stereo partly specified)	active: 184 nM and active: 23.1 nM	–
COC(=O)C1=C(c2ccc(OCc3ccccc3)cc2)C[C@@H]2CC[C@H]1N2C(=O)NCc1ccc(OC)c(OC)c1	active: 18.4 µM	–
CC(=O)c1ccc2c(c1)N(CCCN(C)C)c1ccccc1S2	inconclusive: 14.3 µM [inhibitor, single point] and inconclusive: 29.1 µM [inhibitor, single point]	–
CCOC(=O)N1CCN(CC(O)COCCC23CC4CC(CC(C4)C2)C3)CC1 (stereo unspecified)	active: 11.6 µM	–
O=S(=O)(NCC(c1cccnc1)N1CCN(c2ccc(F)cc2)CC1)c1ccccc1 (stereo unspecified)	active: 11.6 µM	–
COc1ccccc1CN1CCCC(C(=O)c2ccccc2OC)C1 (stereo unspecified)	active: 8.2 µM	–
CC[C@H](OC(C)=O)C(C[C@H](C)N(C)C)(c1ccccc1)c1ccccc1	inconclusive: 18.4 µM [inhibitor, single point]	–
CC1CN(c2ccccc2)NC1=O (stereo unspecified)	active: 13 µM	–
CCS(=O)(=O)Nc1cccc(C(=C2CCCCC2)c2cnc[nH]2)c1	inconclusive: 29.1 µM [inhibitor, single point]	–
COP(=O)(/C=C(\Cl)c1ccccc1)/C=C(\Cl)c1ccccc1	–	inactive: -24.3%
CCNc1nc(NC(C)(C)C)nc(SC)n1	inconclusive: 13 µM [inhibitor, partial curve]	–
CC(C)CCNC(=O)c1c(N)n(CC2CCCO2)c2nc3ccccc3nc12 (stereo unspecified)	active: 25.9 µM	–
C#CCOC(C(=O)OCCN(C)C)(c1ccccc1)c1ccccc1	active: 21.1 µM	–
COc1ccc(-n2c(O)c(C(C)=NCCCn3ccnc3)c(=O)[nH]c2=O)cc1	–	inactive: -25.9%
O=S(=O)(c1ccc(Cl)cc1)N1CCN(C2CCN(Cc3ccccc3)CC2)CC1	inconclusive: 20.6 µM [inhibitor, partial curve]	–

SMILES	Potency	activity change, negative = growth inhibition
CC1([N+](=O)[O-])COP(=O)(NC2CC2)OC1 (stereo unspecified)	–	inactive: 4.08%
CN(C)C1(CNC(=O)Nc2ccc(Cl)c(Cl)c2)CCCCC1	inconclusive: 23.1 µM [inhibitor, single point]	–
Cc1ccc(C)c(OCc2cc(C(=O)N3C[C@H]4C[C@@H](C3)c3cccc(=O)n3C4)no2)c1	–	inactive: -5.6%
CC1CCOC(=O)C=CC=CC(=O)OC2CC3OC4C5OC5(C)C(O)CC4(COC(=O)C1O)C2(C)C31CO1 (stereo unspecified)	active: 0.146 µM	–
Cc1nc2ccccc2c(=O)n1-c1ccccc1C(F)(F)F	–	inactive: -15%
COC(=O)c1c(OCc2cccnc2)cc(=O)n2c1CCN(Cc1cc3c(cc1Cl)OCO3)CC2	inconclusive: 29.1 µM [inhibitor, single point]	–
O=C1CC(=O)N(c2ccc(Cl)cc2Cl)C(=O)N1	–	inactive: 0.918%
CCN(CC)CCCN=C(C)c1c(O)n(-c2ccc(C)cc2)c(=O)[nH]c1=O	–	inactive: -10.7%
O=C(O)CCCc1ccc(N(CCCl)CCCl)cc1	active: 891 nM and active: 461 nM	–
C=CCn1c(O)c(C(C)=NCc2ccc3c(c2)OCO3)c(=O)[nH]c1=O	inconclusive: 14.6 µM [inhibitor, single point]	–
O=C(Nc1cccc(F)c1)N1CCC2(CC1)CCN(C(=O)Oc1ccccc1)CC2	inconclusive: 16.4 µM [inhibitor, partial curve]	–
Cc1cccc(N(CC(=O)NCCSc2ccc(Cl)cc2)S(=O)(=O)c2ccccc2)c1C	inconclusive: 29.1 µM [inhibitor, single point]	–
COc1ccc(C(C)=O)cc1CN1CC=C(c2ccccc2)CC1	–	inconclusive: -30.5% [inhibitor]
OCC1OC(n2cnc3cc(Cl)c(Cl)cc32)C(O)C1O (stereo unspecified)	active: 14.6 µM	–
CC(C)(C)n1nnnc1C(C1CC1)N1CCC2(CC1)C(=O)NCN2c1ccccc1 (stereo unspecified)	inconclusive: 25.9 µM [inhibitor, single point]	–
N#Cc1ccc(CN2CC3(CCNCC3)C2)cc1	inconclusive: 0.13 µM [inhibitor, full curve, poor fit]	–
NCC(CS(=O)(=O)O)c1ccc(Cl)cc1 (stereo unspecified)	–	inactive: 3.01%
COc1ccc(Cn2c(N)c(C(=O)NCc3ccco3)c3nc4ccccc4nc32)cc1	inconclusive: 18.4 µM [inhibitor, single point]	–
c1cc(OCCN2CC2)ccn1	active: 3.26 µM	–
Cc1c(NS(=O)(=O)c2ccccc2)ccc([N+](=O)[O-])c1Cl	inconclusive: 25.9 µM [inhibitor, single point]	–
CC(C)NC(=O)Cn1cc(C(=O)c2ccccc2)c2ccccc21	–	inactive: 5.47%
Nc1c(C(=O)NCCCc2ccccc2)c2nc3ccccc3nc2n1Cc1cccs1	inconclusive: 29.1 µM [inhibitor, single point]	–
COc1cc(C)c(-c2nc(CN3C[C@@H]4C[C@@H](C3)c3cccc(=O)n3C4)c(C)o2)cc1C	inconclusive: 29.1 µM [inhibitor, single point]	–
COC(=O)c1ccc(S(=O)(=O)N2CCCN(Cc3ccccc3)CC2)n1C	inconclusive: 29.1 µM [inhibitor, single point]	–

SMILES	Potency	activity change, negative = growth inhibition
O=c1[nH]c2ccccc2n1C1CCN(C(c2ccccc2)c2nnnn2-c2ccc3c(c2)OCCO3)CC1 (stereo unspecified)	active: 18.4 µM	–
COc1cccc(-c2nnc3n(Cc4ccccc4Cl)c(=O)c4ccccc4n23)c1O	inconclusive: 5.8 µM [inhibitor, single point]	–
C[C@H]1C/C=C/[C@H]2[C@H](O)[C@H](C)[C@@](C)(O)[C@H]3[C@H](Cc4ccccc4)NC(=O)[C@]32[C@H](O)/C=C/[C@](C)(O)C1	active: 3.66 µM	–
Cc1ccc2c(c1)C1CN(C)CCC1N2C(=O)COc1ccc(N(C)C(=O)C(C)(C)C)cc1 (stereo unspecified)	inconclusive: 25.9 µM [inhibitor, single point]	–
OC(CN1CCCCC1)c1c[nH]c2ccccc12 (stereo unspecified)	–	inactive: -10.8%
COC(=O)C1=C(c2ccc(F)cc2F)C[C@@H]2CC[C@H]1N2C(=O)NCCOc1ccc(OC)cc1	inconclusive: 13 µM [inhibitor, single point]	–
CCN(CC)c1ccc(NC(=O)c2cccc(C)c2)cc1S(=O)(=O)Nc1ccccc1OC	active: 16.4 µM	–
CC(C)COP(=O)(c1ccc(N(C)C)cc1)C(O)c1ccc(Br)cc1 (stereo unspecified)	inconclusive: 29.1 µM [inhibitor, single point]	–
CC(=O)N1Cc2cnnn2-c2ccccc2C1C#N (stereo unspecified)	–	inactive: -1.05%
COC(=O)C1=C(c2cc3ccccc3o2)C[C@@H]2CC[C@H]1N2C(=O)N1CCCC1	inconclusive: 25.9 µM [inhibitor, single point]	–
O=C(NCc1ccc(C(=O)N2CCC3(CC2)OCCO3)cc1)c1cccc(Br)c1	inconclusive: 29.1 µM [inhibitor, single point]	–
C=CCCC1(C2=CCCCC2)C(=O)NC(=O)NC1=O	–	inactive: 0.926%
Clc1ccc(C2N3CCCN23)c(Cl)c1 (stereo unspecified)	–	inactive: -9.38%
CC(CCN1CC1)=NNC(=O)Nc1cccc2ccccc12	active: 7.31 µM	–
O=C(CCNS(=O)(=O)c1ccccc1)Nc1ccc(Cl)cc1C(=O)c1ccccc1	inconclusive: 23.1 µM [inhibitor, single point]	–
O=C1C=CC(=O)C2C1C1(Cl)C(Cl)=C(Cl)C2(Cl)C1(Cl)Cl (stereo unspecified)	inconclusive: 29.1 µM [inhibitor, single point]	–
CC(=O)N(C)C1=Nc2ccc(Cl)cc2C(c2ccccc2)=[N+]([O-])C1	–	inactive: -0.0396%
COC(=O)[C@]1(C)CC[C@@]2(C)CC[C@@]3(C)C4=CCc5c(cc(O)c(O)c5C)[C@]4(C)CC[C@@]3(C)C2C1 (stereo partly specified)	active: 4.61 µM	–
CN1C(=S)CN=C(c2ccccc2)c2cc(Cl)ccc21	inconclusive: 33.5 µM [inhibitor, single point]	–
COc1cc(C2c3cc4c(cc3CC3COC(=O)C32)OCO4)cc(OC)c1O (stereo unspecified)	active: 0.0517 µM	–
Cc1ccc2c(c1)C1CN(C)CCC1N2C(=O)c1cccs1 (stereo unspecified)	–	inactive: 18.8%
C=CCN1CCc2cccc3c2C1Cc1ccc(O)c(O)c1-3 (stereo unspecified)	active: 13 µM	–
O=C(C[C@@H]1C[C@@H]2c3cc(NS(=O)(=O)c4ccc(F)cc4)ccc3O[C@@H]2[C@H](CO)O1)N1CCc2ccccc2C1	inconclusive: 29.1 µM [inhibitor, single point]	–
